{"source": "the supplement of paper PMC11417369", "note": "The list shows a part of the results.", "data": [{"system": "PfSIP2 AP2 domain 1 (GST-tagged)", "experiment": "gcPBM binding intensity (ln(normalized median fluorescence intensity)); higher = stronger DNA binding", "method_in_brief": "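For binding intensity, the highest Masliner-normalised natural-log median intensity across replicate spots of either probe orientation was taken. Protein bound to the array was stained with Alexa488 anti-GST antibody and scanned at 488 nm. The protein, GST-tagged P. falciparum DNA-binding domains from E. coli at about 25 μg on average, had been applied for 1 h to an Agilent 4 × 180k array of primer-extended double-stranded 36-bp intergenic genomic probes and negative controls.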", "values": [{"sequence": "TATCAATTTTTCTGGCTATCCAATTAGGGGAAGCCA [CACACA_negctrl_site1045]", "gcPBM binding intensity (ln)": 6.51}, {"sequence": "ATTTGCTCACAAGAAGCACACAAAAAAAGAAAAAAA [CACACA_site9338]", "gcPBM binding intensity (ln)": 6.85}, {"sequence": "CAAAAAATTTGACGTAGTACTTAAAAAAAAAAAAAA [XGTACX_site4523]", "gcPBM binding intensity (ln)": 6.93}, {"sequence": "ATATAAATAAACAGGTGTACTATAATGTTCATAGTA [XGTACX_site1553]", "gcPBM binding intensity (ln)": 6.84}, {"sequence": "GGGAAAATATTTGGGTGTACAAACAAATTAGCTAGC [XGTACX_site6795]", "gcPBM binding intensity (ln)": 6.93}, {"sequence": "TATGATTTCACATAATGTACTTGCTAATTCGTGAAT [XGTACX_site1408]", "gcPBM binding intensity (ln)": 6.74}, {"sequence": "AAGAAAATATAAAATGCACACTATAAATTGTATTTA [CACACA_site4257]", "gcPBM binding intensity (ln)": 7.6}, {"sequence": "TAATTATATATATATGCATGTTATAATTTTTATTTT [TGCATGCA_site78]", "gcPBM binding intensity (ln)": 6.73}, {"sequence": "TCTTTAACAAGTTAAACACACATACATAAATACATA [CACACA_site5406]", "gcPBM binding intensity (ln)": 7.05}, {"sequence": "TTATGTCATAAATGCACACATATACATTGTTTTGAT [CACACA_site646]", "gcPBM binding intensity (ln)": 7.17}, {"sequence": "ACAAAAATATTATATTGTACATTATTAGTTCATATT [XGTACX_site6750]", "gcPBM binding intensity (ln)": 6.9}, {"sequence": "TTTTTATATAAATAATGTACATTTGGTTTTATTATA [XGTACX_site2125]", "gcPBM binding intensity (ln)": 6.85}, {"sequence": "AACACCCACAGACACACACACAAAAATGATTAAAAA [CACACA_site2433]", "gcPBM binding intensity (ln)": 7.27}, {"sequence": "TATTTGTATAAATAAAAATAATATATATCAAATAAC [CACACA_negctrl_site218]", "gcPBM binding intensity (ln)": 6.98}, {"sequence": "TGAACTCATAGGAAAACACACATATGTGTAATATAT [CACACA_site4267]", "gcPBM binding intensity (ln)": 6.96}, {"sequence": "AACAAAAAAACAAACACACACACACGCATATTTATA [CACACA_site7680]", "gcPBM binding intensity (ln)": 7.01}, {"sequence": "AAATATAGTATTAAAACACACATTTATATAAAAAGG [CACACA_site1482]", "gcPBM binding intensity (ln)": 7.02}, {"sequence": "AAAAACAACACAGATAAATTAACACACACACACATA [XGTACX_negctrl_site588]", "gcPBM binding intensity (ln)": 7.36}, {"sequence": "TATATACTCAGACATACACACAAATAAAAAAACACC [CACACA_site5820]", "gcPBM binding intensity (ln)": 8.07}, {"sequence": "TTATGTGATTTTAATTGTACATAAATATTTGTTAAC [XGTACX_site3489]", "gcPBM binding intensity (ln)": 7.05}, {"sequence": "CACGCATACAGACACACACACACACGGATATAAATA [CACACA_site6445]", "gcPBM binding intensity (ln)": 7.28}, {"sequence": "CAATAAATCGAAATCGTGCACGGACACATGCAGTAG", "gcPBM binding intensity (ln)": 9.04}, {"sequence": "AAATAATATAAATACACACACACATATATAAATACA [CACACA_site4465]", "gcPBM binding intensity (ln)": 7.11}, {"sequence": "GGTTCATTTATATGGAGTACAAAAAATATGTATATA [XGTACX_site8209]", "gcPBM binding intensity (ln)": 7.05}, {"sequence": "ATATATATAATAAGTGGTACAAGTTATTCATTAAAT [XGTACX_site7063]", "gcPBM binding intensity (ln)": 7.7}, {"sequence": "AAAGAAAACGGACTTTGTACTTAAATATAATATAAA [XGTACX_site8585]", "gcPBM binding intensity (ln)": 6.99}, {"sequence": "TTTTTTTATACAATTTTATATATTAAATATTATAAT [CACACA_negctrl_site226]", "gcPBM binding intensity (ln)": 6.81}, {"sequence": "TAAAGTTATATATTATGTACATATTTGTATACATTT [XGTACX_site2516]", "gcPBM binding intensity (ln)": 7.12}, {"sequence": "AACAACTATTAATTTACACACATGTATTTATTTTAC [CACACA_site5683]", "gcPBM binding intensity (ln)": 7.05}, {"sequence": "TCTTATATATTTATTTGTACATATATATATATATAT [XGTACX_site7214]", "gcPBM binding intensity (ln)": 8.91}, {"sequence": "AATTGTCAGAGAATATGTACTTAAGTATTTATTGTT [XGTACX_site1947]", "gcPBM binding intensity (ln)": 7.04}, {"sequence": "ATAAAAAAATAAAACACACACATATATATTATATAT [CACACA_site2810]", "gcPBM binding intensity (ln)": 7.12}, {"sequence": "TAAATAAAAAAACACACACACATATATATATATATA [CACACA_site2269]", "gcPBM binding intensity (ln)": 9.47}, {"sequence": "AATAAGATATCTACAACACACATTTAATTTTTTTTT [CACACA_site1641]", "gcPBM binding intensity (ln)": 6.86}, {"sequence": "AATCATAAAGAACATATAATATATATATATATATAT [CACACA_negctrl_site316]", "gcPBM binding intensity (ln)": 9.54}, {"sequence": "AATGCATTGATTGCATTCAAAAAAAAAAAAAAAAAA [XGTACX_negctrl_site597]", "gcPBM binding intensity (ln)": 7.12}, {"sequence": "AATATATGCTTTCGTTATATTAAATTCAATTTAATG [GTGCAC_negctrl_site76]", "gcPBM binding intensity (ln)": 6.95}, {"sequence": "TGTATTACGAAAAAATGTACAGAAAAAGAAACAAAA [XGTACX_site2777]", "gcPBM binding intensity (ln)": 7.23}, {"sequence": "TTTGTCATAAGCAATGCATGTAAGTTTCTGACATTA [TGCATGCA_site1007]", "gcPBM binding intensity (ln)": 6.95}, {"sequence": "TGGGATAGATCATTTACACACACAAAAAAAAAAAAA [CACACA_site2140]", "gcPBM binding intensity (ln)": 6.82}, {"sequence": "ATTTATAAAATTAATAGTACATATATTTATATATAT [XGTACX_site4173]", "gcPBM binding intensity (ln)": 7.63}, {"sequence": "TATTGCACAAAATAATTTTATTATACTTTATGTTAG [TGCATGCA_negctrl_site574]", "gcPBM binding intensity (ln)": 6.93}, {"sequence": "ATTTGGCATAGACACACACACACACGCACGCACATA [CACACA_site6424]", "gcPBM binding intensity (ln)": 7.74}, {"sequence": "TATGTTCATCATAGCACACATATATAAATTACAACA [CACACA_site3533]", "gcPBM binding intensity (ln)": 6.98}, {"sequence": "CAAAAATAAACTATAGTACACACTTATTATTATGAA [CACACA_site2702]", "gcPBM binding intensity (ln)": 6.89}, {"sequence": "TTTTTATGTAGAATTTTTTTATTTTTTCAAAATGGA [CACACA_negctrl_site166]", "gcPBM binding intensity (ln)": 6.69}, {"sequence": "ATTGTAATCATATGAAGTACTAATATATATTTTAAT [XGTACX_site8350]", "gcPBM binding intensity (ln)": 7.04}, {"sequence": "AATTTTAAAAATATAACACACATATATAAAATATAT [CACACA_site3610]", "gcPBM binding intensity (ln)": 6.83}, {"sequence": "AATGAAGAAAAAAAAAGTACATTATTTTTAAAACTT [XGTACX_site563]", "gcPBM binding intensity (ln)": 6.79}, {"sequence": "TTTTAAATAAAATATTGTACATTAAAATTGTAATAT [XGTACX_site2128]", "gcPBM binding intensity (ln)": 6.83}, {"sequence": "AAGCAAACATATTAATGTACACACACCCACACACAA [XGTACX_site5806]", "gcPBM binding intensity (ln)": 7.18}, {"sequence": "TAAGATAAATGATAAAGTACTTTTTTTTTTTAAATA [XGTACX_site2326]", "gcPBM binding intensity (ln)": 6.77}, {"sequence": "ATTATAAATATGTATATACACACTTTTAATATTCAT [CACACA_site9367]", "gcPBM binding intensity (ln)": 7}, {"sequence": "AGTAAAAAAAAAAAAAAAAAAAAAAAAAAAAAAAAA [GTGCAC_negctrl_site147]", "gcPBM binding intensity (ln)": 7.11}, {"sequence": "TATTAATATTTTTGTTGTACTTAAAAATGATGGTAG [XGTACX_site3501]", "gcPBM binding intensity (ln)": 7.4}, {"sequence": "TATTATTTTAATTATTCACACATTATTATAAAAATT [CACACA_site5538]", "gcPBM binding intensity (ln)": 6.99}]}]}
